From the supplement of paper PMC3334620
Whole data set: some 33,000 sequences, median “E-score (-0.5 to 0.5)” near -0.035, cut for the highest 2% near 0.34. Some of the results follow.

The sequences below were run against T1, Mot3 (UniProt P54785) (assay: PBM E-score (8-mer binding enrichment) (E-score (-0.5 to 0.5)); higher = stronger / more preferred TF binding; most listed sequences are background and not binding sites). Conditions: protein concentration: 200 nM; construct: GST-full length.
T1 sequence: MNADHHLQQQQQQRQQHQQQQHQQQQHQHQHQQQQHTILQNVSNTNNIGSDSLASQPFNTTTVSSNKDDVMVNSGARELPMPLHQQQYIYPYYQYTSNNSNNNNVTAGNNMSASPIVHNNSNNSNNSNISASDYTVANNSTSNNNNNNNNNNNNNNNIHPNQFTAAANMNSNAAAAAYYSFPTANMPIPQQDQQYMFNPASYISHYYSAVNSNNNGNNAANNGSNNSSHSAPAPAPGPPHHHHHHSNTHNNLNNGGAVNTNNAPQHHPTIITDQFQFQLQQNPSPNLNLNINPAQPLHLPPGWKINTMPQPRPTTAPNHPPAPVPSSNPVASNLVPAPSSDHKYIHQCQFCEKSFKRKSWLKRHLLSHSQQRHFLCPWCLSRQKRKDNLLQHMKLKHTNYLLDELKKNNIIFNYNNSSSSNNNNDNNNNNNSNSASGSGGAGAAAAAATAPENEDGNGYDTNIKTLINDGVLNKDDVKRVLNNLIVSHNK
Description: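 Universal 'all 10-mer' protein binding microarrays (Agilent AMADID 015681) probed with GST-tagged S. cerevisiae TFs (full-length or DBD) made by in vitro transcription/translation (PURExpress), about 100-200 nM. Bound TF was detected with fluorescent anti-GST. Each ungapped 8-mer (which stands for itself and its reverse complement) is scored by the PBM enrichment score (E-score), a modified Wilcoxon-Mann-Whitney statistic from -0.5 to +0.5, computed with the Universal PBM Analysis Suite. Scale: above 0.35 generally sequence-specific binding.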

Row | Sequence | PBM E-score
1 | AAGAACTC | 0.214
2 | GCCTGAGA | 0.0257
3 | CTAAGCCC | -0.272
4 | GATGTCGA | 0.215
5 | CGATCGTA | -0.102
6 | CTGCCCTA | -0.196
7 | AAGAATGG | -0.156
8 | TAGGAGCA | 0.0656
9 | AATATTTC | 0.0305
10 | AGTTTGCG | -0.0945
11 | AACTGGCG | -0.0219
12 | CGAGGGAC | -0.299
13 | CTACCTAG | 0.0595
14 | AAGGTAAT | 0.34
15 | GTGATTAA | 0.11
16 | GATTCTAC | 0.0482
17 | ACGGAATC | -0.165
18 | AAAAGTCG | -0.0841
19 | GCACGACA | 0.217
20 | TCGAGAGA | -0.237
21 | CGAACTCA | -0.0943
22 | ATACTCCA | -0.0549

Row | Sequence | PBM E-score
23 | ACCCTGTG | 0.0798
24 | CCCGGTTA | -0.245
25 | GCAGCCAC | -0.276
26 | GCGGTTCC | 0.0435
27 | AAACGCGT | 0.235
28 | AACTCCAT | -0.147
29 | CAATCTCA | -0.0375
30 | CGGCCGCA | -0.243
31 | AAACCAGT | -0.0222
32 | CCGTGGGC | -0.265
33 | AGCCAGTC | -0.089
34 | AGAAGCGG | -0.205
35 | ACTAAGCT | -0.0746
36 | AGACTGCC | -0.196
37 | CACCACCG | -0.238
38 | AGTATGAA | 0.0216
39 | AGTTTGAG | -0.163
40 | ACTACAGG | 0.194
41 | CAGAGGGC | 0.0242
42 | ACTCGGAC | -0.188
43 | ATGACGAA | 0.154
44 | CTACCAGC | -0.133

Row | Sequence | PBM E-score
45 | TAGCTAGA | -0.0751
46 | AAGTACGG | -0.166
47 | AACCCGGG | -0.083
48 | GAGGGTGA | -0.208
49 | AAGTCCCC | -0.285
50 | CATAGTAG | 0.0366
51 | CTATGAGC | -0.132
52 | CAAACTTG | 0.0232
53 | CAATGCTC | -0.168
54 | ATTGTAAG | 0.0549
55 | CGGCACCG | -0.0283
56 | AATGCCGC | -0.0597
57 | CACGACTC | 0.145
58 | GAACAACC | 0.0492
59 | GGCCGTGA | -0.166
60 | ATAGGGGA | -0.199
61 | GCAGTCGC | -0.162
62 | CTTATAGC | 0.0809
63 | CATCCAAC | -0.11
64 | AGGTACCC | 0.361
65 | ATATGCGC | 0.0367
66 | ATATCATA | 0.121

Row | Sequence | PBM E-score
67 | GACGTTGC | -0.065
68 | ATGAGGCA | 0.364
69 | AAACGATG | -0.0398
70 | ATATGGGC | -0.00015
71 | TAGCTGCA | -0.0762
72 | ACACGGTA | 0.34
73 | ACAACGGT | 0.0418
74 | AATCCTGC | 0.093
75 | TACAGATA | 0.104
76 | AAAGAGAT | -0.0413
77 | CCACCGAC | -0.125
78 | CTTGCTTA | -0.117
79 | ATCCACCA | -0.155
80 | CAAGAGCA | -0.1
81 | CCACGCAA | 0.126
82 | GAAGAGCA | -0.172
83 | ACGCGCAC | 0.0217
84 | TCAACAAA | 0.167
85 | AACACATA | 0.312
86 | GAAAAGGC | 0.228
87 | TACACCGA | 0.0164
88 | AACCCGGT | -0.235

Row | Sequence | PBM E-score
89 | ATATGCCA | -0.135
90 | AATTGGGG | -0.247
91 | AAAACGGG | 0.0717
92 | AGGCAGCC | 0.317
93 | CGCCTCCC | -0.274
94 | GAAGCTCA | -0.294
95 | TAGTTGGA | 0.0664
96 | TCGGCTAA | -0.0724
97 | AGACGGTA | -0.052
98 | AGAATGAA | 0.105
99 | ACTCGAGT | 0.00487
100 | CACCCAGC | -0.13
101 | AACCCGTT | -0.047
102 | GCTCAGAC | -0.147
103 | CTCGTTCA | 0.116
104 | TCAAGTAA | 0.269
105 | CTTAAATC | 0.0279
106 | GCGTTCAA | -0.0266
107 | ATAAGCCG | -0.177
108 | ACGAAGTG | 0.0261
109 | ATTTGTGG | -0.0729
